The values that follow come from PMC10726135.

The other results are listed elsewhere or left out. At the low end of the ranking the order means little. The protein was read in a cell extract, so binding may be indirect.

The experiment has as its target T1, HNF4alpha8 (COS-7 nuclear extract) (UniProt P41235-5).
T1 sequence: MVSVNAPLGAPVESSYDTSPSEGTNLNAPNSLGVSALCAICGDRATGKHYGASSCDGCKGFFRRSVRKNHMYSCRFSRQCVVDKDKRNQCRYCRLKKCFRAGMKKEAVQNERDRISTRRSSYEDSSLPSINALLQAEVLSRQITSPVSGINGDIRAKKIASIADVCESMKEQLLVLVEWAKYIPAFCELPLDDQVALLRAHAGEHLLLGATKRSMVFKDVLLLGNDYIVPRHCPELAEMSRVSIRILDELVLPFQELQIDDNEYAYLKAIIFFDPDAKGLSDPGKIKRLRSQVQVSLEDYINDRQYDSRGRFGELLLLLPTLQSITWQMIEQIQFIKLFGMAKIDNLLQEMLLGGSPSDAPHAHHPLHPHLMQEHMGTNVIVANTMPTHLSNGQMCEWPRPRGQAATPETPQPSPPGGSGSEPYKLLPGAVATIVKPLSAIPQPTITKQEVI
As to the kind of experiment: protein-binding microarray. The following applies: COS-7 nuclear extract on double-stranded Agilent 4x180k PBM; binding buffer, salt, pH and temperature not given; high values mean tight binding; double strand, one strand shown; sequences stand for … in …GCCTAGGGAGATTAGAGTATCGGTCGA
In the case of CATCCTCATTGCCTCTGGGCTTTGATGGAC, the binding signal (log2 normalized intensity) amounted to 1.28. The value for AGCTTAGTTTGCCACGGTCAGCAATGTGGA was 1.02; that for ACTAAATTCTTGTCAATGACCCTAATGGGG was 3.01. For the sequence CGGCCTCTGGGAAATGTAGTTCCGGAGAAC, the binding signal (log2 normalized intensity) was -1.31. The value for AGCTATGCCTGAGGCTGAGGTTGCCCAGGG was -1.12. In the case of GCAATCATGCACCTGCGGATAATCAAAGGT it was -1.24; in that of ACCTGTGTCCCCCAGGTCCAGCCTTTGGGC, 2.91; in that of CTTTTTCTGAGCCTGGGTCACCCCTATAAT, 2.35. As for TCTAGACCTGGACTTGAAGCCAGACTCTGC, the binding signal (log2 normalized intensity) turned out to be 0.717. For the sequence CCAGAACCTTGTGCAGTATCCCAGGGACTT, the binding signal (log2 normalized intensity) was -1.28.

For AGGGCTCTCTCACCAGAAAAATGTACATGT, the binding signal (log2 normalized intensity) is 1.14.

Regarding TTTTTTCCGAACGCCAGCAGCAGGGTCAGA, the binding signal (log2 normalized intensity) is 1.86. The value for TTCATGGGTGAAAGGGACTCATCTCCAAAC was -0.892; that for ATCAAATACAGAATCAATGCCTGATTCCAA was -1.29. For the sequence GCTGGAACTCCTCCGGTCAAGATCAAGTGG, the binding signal (log2 normalized intensity) was 0.349.

Take CTCTTGCTATGCCTTAGCAAACAGACTGGT: the binding signal (log2 normalized intensity) is -1.15. In the case of CAGCCCCAATGGCTAAGGTCACCATGACCA it was 2.78. Regarding ATTAGAGCAACCAGAATGTTCAAAAGTGTG, the binding signal (log2 normalized intensity) stood at 0.135. In the case of CTTTTCCTTATCATCACATGTGCAAGGGCA it was 2.26; in that of CTTGCACTGTAAGATCAAGATTAAGAAGAG, -1.15. Turning to GTCCCTGGCCAATCCCAGGGTCAGAGGTCG, the binding signal (log2 normalized intensity) is 6.08.

For the sequence CTTCCAATGAAAGGTTAACCTGCTGGTTTA, the binding signal (log2 normalized intensity) is 1.52. In the case of GATATTCCAAAAGGGCAGCAGTAACCCCCC it was 4.8; in that of ATCATTCACGTGCCTGAGATTCCTTCAAAG, -1.21; in that of TAGAGATAAGGTAACAGGCCAAAGGGCAAG, 4.25. In the case of GTGATAATAAATGTGTTTCATCAGTCCAAT it was 1.76; in that of TCAAAGGTTAATGAGCCCCCTAAAAAGAAA, 3.5. The value for ACGACGCTCCTATCATCCCTATCACTCAAG was -0.97; that for CCCAGGGACTTTGGCCTTACTTGGCCTGTT was 3.01; that for AGGTAGTCCCTGCTCCACGCAAACACAAAA was -1.22. Take TGGCAGGGGCGCGGCCTAATGCCTGGGAAA: the binding signal (log2 normalized intensity) was -1.26. The value for CAGGATCTCAGCCGCGCGGCTTCAGAGGCC was -1.32; that for CTGGCAGCACCTGAAGAATTTGGACTTTGC was 8.33; that for CACATTGTTTTGGAGTTAGCTGTCTTTCTG was 0.91. In the case of GAAGACCTTCAACTGATTAGATAAGGTTCA, the binding signal (log2 normalized intensity) was 1.77. The value for TTTCACCTGGGGCCTTGGGCCACCTGAGAC was -0.738; that for TAGGTGCTCTTGGCTAAGACAGGGGCTATT was -1.2. The value for TCAGACTGCTTCTCTGCTGGGGCCCTCACG was -1.29; that for TTTTCCTTTGTTGGTTTTGCCCGAGGTCTG was 1.89; that for CAGAGTAAACAGGTAAACAGCTGTGCCATG was -1.38.

As for TAATCAGAGCAGGAATTCTGATCTTTGACC, the binding signal (log2 normalized intensity) was 7.96. The value for TATGGCAGGGTCGGAATGTCTGGGCAAAGG was 1.98; that for CACCCACTTGGATAATTTCTTATAAGCCGA was -1.36; that for GCCAAACTTGGGTTTATGGCTTATGCATGT was 1.45. Regarding GTTGGAAAAAAAAAAAAGTAGTAGGAGGAG, the binding signal (log2 normalized intensity) is -1.31. In the case of TCCACAGAGCACAGGATCCAGAGGTCACCC it was 3.62; in that of GCAATGCCTCGCCCTGCTTCGGCTCGCGCA, -1.43; in that of TGGGCAAGATGGCTCTCCCGGGGCGGGGGT, -1.11. In the case of GTAAAGTCTGGCATACAGGGTCCAAAGGTG it was 6.76; in that of TTGCATGAGAATCTGACCTTTGGTTAACTT, 5.7.

Regarding CTCCAGGTACAAGGATAAATACTTCTCCTC, the binding signal (log2 normalized intensity) is -1.32. Take CCCGGTGCGCTGGCCTTGCTTTTCACAGTC: the binding signal (log2 normalized intensity) is -0.861. In the case of GTCCCTGCTTGATAAGACTGACAACCGGCT it was -1.36. In the case of TGGAACTGACATGCTGTCACTTCTGCTGCA it was -1.35; in that of TCCTCTTATCTTCAGGTATCCTTAAACACT, -0.323. In the case of TTCTCAATGTCTTTCCTGCAGAGGGACTGA it was 1.35; in that of TTGTTTAGGTACAAAGTCCATTGGAAGCCA, 6.42; in that of GACAATAATGAATAAGCACGTTAGAGAAAA, -1.31. Turning to CCAACATTCCAGAGAAGCACATCCAGGCAG, the binding signal (log2 normalized intensity) is -1.35. With AAGTGGGGGGAAAGAATAACGTTACAGTGG, the binding signal (log2 normalized intensity) is -1.42. In the case of CTGAGGGGGGCCTCTTTTAAGAAGCCAGTG it was -1.34.

AACCTCACAGAAATCCAAAGGTCAACAGCC: the binding signal (log2 normalized intensity) is 4.86. With ACAAGACCACAAGGTGGCGATAACTCCTTT, the binding signal (log2 normalized intensity) is -1.24. The value for ACCTCATTGTGATGTGTGCGTTCATCTCAC was 1.54.

Turning to TAATCAGCTTAAGCATACAGATTACATCTC, the binding signal (log2 normalized intensity) is -1.03. The value for AGCTCTAGAACGCTGACTCCGGGGAGCAGG was -1.33. In the case of GTGGGAGGCCAAGAGATAAAAGAGAAGATA it was -1.3; in that of CCAGCTGGTTTGCCTCTCTTAGGTGACAGC, -0.948; in that of AGGTGAATGTACAAAGGTCAACGGCACAAG, 5.02. Turning to GTGTATGTGTGTGTACACATTGATATGTTT, the binding signal (log2 normalized intensity) is 1.92.

Regarding TGTGTCGATGTTAACGCTAAAGAGGTATCA, the binding signal (log2 normalized intensity) was found to be 1.3. The value for AGAGCGATCAAAGGTCACAGAGACCACAGG was 5.89.
